The full ranking holds about 81,000 sequences; the median of “one-hybrid fitness for binding NBS DNA” is about -0.1, and the highest 2% start at about 0.36. Some of the results follow.
B1: Caulobacter ParB omega fusion; a variant is named by its letters at X, in order, B8GW30 (parent)
chain: MESVVVGEPGMSEGRRGLGRGLSALLGEVDAAPAQAPGEQLGGSREAPIEILQRNPDQPRRTFREEDLEDLSNSIREKGVLQPILVRPSPDTAGEYQIVAGERAWRAAQRAGLKTVPIMVRELDDLAVLEIGIIENVQRADLNVLEEALSYKVLMEKFERTQENIAQTIGKSXSHVANXMRLLXLPDEVQSYLVSGELTAXHARAIAAAADPVALAKQIIEGGLSVRETEALARKAPNLSAGKSKGGRPPRVKDTDTQALESDLSSVLGLDVSIDHRGSTGTLTITYATLEQLDDLCNRLTRGI

Variants of: B1
Test: one-hybrid fitness for binding NBS DNA (the Noc-binding site; scaled: cognate 1, non-cognate 0); higher = stronger binding
Conditions: with NBS DNA site
In short: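 Caulobacter ParB libraries with four specificity codons randomised were screened by bacterial one-hybrid selection in the E. coli USO strain, using a HIS3 reporter whose site lies 19 bp from the promoter. Selection ran for 48 hours at 37°C on M9 lacking histidine, with 0.1 mM IPTG and 5 mM 3-AT. Plasmids were Illumina-sequenced before and after selection, three replicate libraries were pooled, and variants with under 10 reads were dropped. Fitness is the log change in each variant's read ratio to wild type, rescaled against the cognate and non-cognate sites.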

one-hybrid fitness for binding NBS DNA, 0.37:
QRGI

one-hybrid fitness for binding NBS DNA, 0.223:
KCNR

one-hybrid fitness for binding NBS DNA, ≤ 0.2:
MSVC
TRLW
TTSW
YSMV
RRVP
HMCR
FNDN
QNSI
VKKA
MHQE
RQYE
NRSK
RNWM
ETCS
DFAG
FMND
YNQG
WIHT
LKSE
NHEC
SAQF
LTDN
AYSG
LVPG
EDFG
RPPT
LTHC
YILM
QCAE
RCEY
RTSV
NLPD
QVCG
DHER
PYHS
DACW
INIL
QHSK
RKRD
YGAN
GFLA
NSKN
CISC
LHRN
SYVP
DRQH
SPQY
QRIL
HQRA
RPCR
RESR
CIKS
DYGG
SHCW
NHPR
NVCG
VNVC
PIKG
DRDF
YHCS
AFKF
QSAV
WMYP
NKVI
QVSG
CSCD
SVSF
GRYL
QGVT
YEAN
PCAK
AWKS
SISG
PGCA
STPI
HLLL
LPLG
YDAM
WCHG
QMFV
MRPE
QYSV
KLPT
AASS
IKSR
CRCT
VYMR
NVHR
LAVM
IPKS
PPHM
MDPD
HNLY
RGRD
QTTE
VAMA
AYNN
LEPV
MWVR
TSIC
LLVA
HSTN
RSEH
RREV
HKIS
VAKC
TKIK
QVVW
CIHS
VLTV
QALW
STRV
ITGI
PIGC
NTNP
TGIC
CSQS
CTAN
FQHI
SYLG
GGTS
MHPK
MVAC
NVVA
PKVR
KPIG
RGGE
SEHL
AGYG
GFVT
LRCP
RGAL
TGLG
AECR
MIRL
KKAV
LVGL
THGA
QVWW
NSLM
VNLG
SPLY
IAMR
VCTY
MQSC
IWAG
WVWS
KICD
CDYF

one-hybrid fitness for binding NBS DNA, 0.822:
QRGT

one-hybrid fitness for binding NBS DNA, 0.447:
QACR

From a collection of fitness landscapes (doi:10.1016/j.celrep.2020.107928)
